PubChem BioAssay AID504332 (National Center for Advancing Translational Sciences (NCATS), 2011)
About 31,000 (8.9%) of roughly 350,000 compounds were called active. This list was built around the results that the source calls inconclusive (neither active nor inactive); the mix of calls is not that of the screen. Calls come from the whole dose curve; as a rule, active = well fitted inhibition curve with a large enough effect; inconclusive = small, poorly fitted or top-dose-only effect; inactive = no such curve, though single readings can be large or run the other way. Potencies beside an inconclusive call are fits to weak or partial responses and may not hold up.

molecular target: Histone-lysine N-methyltransferase EHMT2 (Homo sapiens) (UniProt Q96KQ7); assay: qHTS Assay for Inhibitors of Histone Lysine Methyltransferase G9a; details: G9a H3K9 monomethylation, AlphaScreen, 2 h; activity, negative = inhibition: at 59 µM (top of the series) unless noted; note: nearly all actives have a fitted effect of over 75% in size
Procedure, shortened: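 Readings reflect AlphaScreen signal from monomethyl-H3K9 antibody detection. HMT at 20 nM; substrate b-H3K9 500 nM; cofactor SAM 20 uM; 2 h RT reaction; compounds tested as titrations in qHTS with 15 min preincubation.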
% is set by controls: 0 for no effect and ±100 for the full control effect; potency is the fitted concentration of half-maximal effect; tags give direction and shape of the fitted curve.

UniProt Q96KQ7, sequence (Q96KQ7 whole entry, looked up): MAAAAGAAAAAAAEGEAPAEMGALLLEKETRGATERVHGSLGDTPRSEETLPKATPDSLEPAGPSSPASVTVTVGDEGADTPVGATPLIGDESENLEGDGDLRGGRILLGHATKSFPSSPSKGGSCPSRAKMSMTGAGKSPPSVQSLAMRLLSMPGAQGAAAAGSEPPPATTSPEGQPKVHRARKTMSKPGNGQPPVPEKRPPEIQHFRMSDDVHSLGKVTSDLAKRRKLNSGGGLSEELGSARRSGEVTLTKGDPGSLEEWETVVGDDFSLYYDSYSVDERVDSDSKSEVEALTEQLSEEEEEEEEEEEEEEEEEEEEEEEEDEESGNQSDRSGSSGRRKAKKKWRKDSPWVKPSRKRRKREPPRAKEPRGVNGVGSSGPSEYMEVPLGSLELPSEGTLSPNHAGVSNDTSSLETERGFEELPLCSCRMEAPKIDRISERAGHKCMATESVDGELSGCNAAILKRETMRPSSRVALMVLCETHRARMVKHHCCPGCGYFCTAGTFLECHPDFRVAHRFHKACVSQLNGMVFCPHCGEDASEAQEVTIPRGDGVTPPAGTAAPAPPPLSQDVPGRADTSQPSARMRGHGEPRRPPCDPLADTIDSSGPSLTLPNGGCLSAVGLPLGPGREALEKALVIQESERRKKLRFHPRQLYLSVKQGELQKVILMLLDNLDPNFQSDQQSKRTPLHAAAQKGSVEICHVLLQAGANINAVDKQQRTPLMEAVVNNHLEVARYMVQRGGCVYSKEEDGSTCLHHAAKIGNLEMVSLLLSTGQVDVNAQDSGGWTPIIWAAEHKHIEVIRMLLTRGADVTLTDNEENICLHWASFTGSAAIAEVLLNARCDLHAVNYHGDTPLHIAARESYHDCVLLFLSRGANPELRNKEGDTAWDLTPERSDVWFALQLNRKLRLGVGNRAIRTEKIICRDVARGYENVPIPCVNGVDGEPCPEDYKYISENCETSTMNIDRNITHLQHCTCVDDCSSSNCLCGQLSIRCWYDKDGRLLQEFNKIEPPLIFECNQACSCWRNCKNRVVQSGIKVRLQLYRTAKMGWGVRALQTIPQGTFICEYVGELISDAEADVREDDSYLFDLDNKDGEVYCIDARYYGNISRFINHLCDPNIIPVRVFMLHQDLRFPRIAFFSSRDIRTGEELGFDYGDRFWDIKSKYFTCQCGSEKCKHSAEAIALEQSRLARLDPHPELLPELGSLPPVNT

Question: For `Cc1cc(C(=O)OCC(=O)Nc2ccccc2C)c(C)o1`, which “activity, negative = inhibition” value is on record?
Answer: inactive: 5.9%

Question: With `COc1ccc(-c2cccc(C3CC=CC4C3C(=O)N(Cc3ccccc3)C4c3ccc(C(F)(F)F)cc3)c2)cc1` (stereo unspecified) as the molecule, how does the activity, negative = inhibition read?
Answer: inconclusive: -52.4% [inhibitor] [at 12.7 µM]

Question: `CCc1ccc(-n2nc(CO)c(C(=O)NCc3ccccc3Cl)n2)cc1` was tested. Which “activity, negative = inhibition” value did it give?
Answer: inactive: 9.5%

Question: For `Nc1c(C(=O)c2ccc(F)cc2)oc2ccccc12`, which Potency is on record?
Answer: inconclusive: 39.8 µM [inhibitor, single point]

Question: How did the activity, negative = inhibition turn out when `COc1ccc(N2CCN(C3CC(=O)N(c4ccc5c(c4)OCCO5)C3=O)CC2)cc1` (stereo unspecified) was run?
Answer: inconclusive: -60.1% [inhibitor]

Question: `COc1ccc(Cc2nc3ccccc3n2Cc2ccccc2C)cc1` was tested. Which “activity, negative = inhibition” value did it give?
Answer: inactive: 3.43%

Question: `Cc1cccc(OCC(=O)NC(=S)N2CCCc3ccccc32)c1` was tested. Which Potency did it give?
Answer: active: 11.2 µM

Question: How did the Potency turn out when `CC(C)OC(=O)CSc1nnc(-c2cccnc2)n1N` was run?
Answer: inconclusive: 1.12 µM [inhibitor, partial curve, poor fit]

Question: For `CCOc1cc(/C=N/n2cnnc2)ccc1OS(=O)(=O)c1ccc(C)cc1`, which Potency is on record?
Answer: inconclusive: 0.282 µM [inhibitor, full curve, poor fit]

Question: Which “activity, negative = inhibition” value does the source give for `O=C(CCC(=O)N1Cc2ccccc2Oc2ncccc21)NCc1cccc(Cl)c1` here?
Answer: inactive: -16.6%

Question: `CCc1ccc(/C=N/NC(=O)c2nnn(-c3nonc3N)c2CN2CCOCC2)cc1` was tested. Which Potency did it give?
Answer: inconclusive: 79.4 µM [inhibitor, single point]

Question: For `O=c1[nH]c2ccccc2c(O)c1O`, which Potency is on record?
Answer: active: 0.708 µM

Question: Which activity, negative = inhibition does the source give for `COc1cccc(C(=O)N2CCN(C(=O)C3CCCO3)CC2)c1` (stereo unspecified) here?
Answer: inactive: -5.91% [at 2.33 µM]

Question: Which Potency does the source give for `COc1ccc(N2CCN(C(=O)c3cn(CC4CCCCC4)nn3)CC2)cc1` here?
Answer: active: 35.5 µM

Question: For `Cc1nc(COC(=O)c2ccc(S(=O)(=O)N3CCCC3)cc2)cs1`, which Potency is on record?
Answer: inconclusive: 89.1 µM [inhibitor, partial curve, poor fit]

Question: For `CCOC(=O)c1sc(NC(=O)CSc2nnc(-c3ccco3)n2CC)c(C(=O)OCC)c1C`, which Potency is on record?
Answer: active: 17.8 µM

Question: How did the Potency turn out when `Cc1[nH]c(=O)[nH]c(=O)c1CSCC(=O)OCC(=O)c1ccc(Br)cc1` was run?
Answer: inconclusive: 56.2 µM [inhibitor, partial curve]

Question: Which Potency does the source give for `O=C(CSc1ccccc1F)OCC(=O)N1CCN(C(=O)c2ccco2)CC1` here?
Answer: inconclusive: 35.5 µM [inhibitor, partial curve, poor fit]

Question: For `CCOc1cc(CNCc2cccnc2)ccc1OCC(=O)NC(C)(C)C`, which Potency is on record?
Answer: active: 50.1 µM

Question: For `Nc1nc(-c2ccc3c(c2)CCO3)cs1`, which Potency is on record?
Answer: inconclusive: 89.1 µM [inhibitor, single point]

Question: Which Potency does the source give for `CN(C)c1cccc2c1C(=O)c1ccccc1C2=O` here?
Answer: active: 11.2 µM

Question: For `CC(C)(C)C(=O)CNCC(=O)C(C)(C)C`, which Potency is on record?
Answer: active: 39.8 µM

Question: With `CN(C(=O)c1ccccn1)c1nnc(-c2cnccn2)s1` as the molecule, how does the Potency read?
Answer: active: 44.7 µM

Question: How did the activity, negative = inhibition turn out when `COc1ccccc1/C=C/C(=O)/C=C/c1ccccc1O` was run?
Answer: inconclusive: -76.8% [inhibitor]

Question: How did the Potency turn out when `C/C(N)=C(/C#N)C(=O)CSc1nn(-c2ccc(Cl)cc2)c(=S)s1` was run?
Answer: inconclusive: 50.1 µM [inhibitor, partial curve, poor fit]

Question: Which Potency does the source give for `Cc1ccc(NC(=O)CC2OC(=O)c3ccccc32)cc1S(=O)(=O)N1CCCCCC1` (stereo unspecified) here?
Answer: inconclusive: 8.91 µM [inhibitor, single point]

Question: With `CCCCC/C=C\CC1OC1C/C=C\C/C=C\CCCC(=O)O` (stereo unspecified) as the molecule, how does the Potency read?
Answer: inconclusive: 3.98 µM [inhibitor, full curve]

Question: For `CCOc1cc2c3c(c1)C1(OCCO1)C(=O)N3C(C)(C)CC2C` (stereo unspecified), which activity, negative = inhibition is on record?
Answer: inactive: -21.4% [at 12.7 µM]

Question: For `Cc1cc(NS(=O)(=O)c2ccc(NC(=O)CSc3nc4ncccc4[nH]3)cc2)nc(C)n1`, which “activity, negative = inhibition” value is on record?
Answer: inactive: 0.502%

Question: For `COC(=O)c1ccsc1NC(=O)CSc1nnnn1Cc1ccccc1`, which Potency is on record?
Answer: inconclusive: 39.8 µM [inhibitor, single point]

Question: How did the “activity, negative = inhibition” value turn out when `CC1(C)COC(/C=C/c2cccc([N+](=O)[O-])c2)=N1` was run?
Answer: inactive: 1.26% [at 102 µM]

Question: With `COC(=O)C1=C(NC(=O)COc2ccc3ccccc3c2)CCS1` as the molecule, how does the Potency read?
Answer: inconclusive: 35.5 µM [inhibitor, partial curve, poor fit]

Question: How did the activity, negative = inhibition turn out when `Cc1cnc(C(=O)O)cn1` was run?
Answer: inconclusive: -58.5% [inhibitor] [at 2.33 µM]

Question: Which Potency does the source give for `Cc1ccccc1CN1C[C@@H]2C[C@@H](c3ccc4nsnc4c3)N3CCC[C@@]23C1=O` here?
Answer: inconclusive: 50.1 µM [inhibitor, partial curve]

Question: For `NC(=O)c1ccc(NC(=O)COC(=O)CCCc2c[nH]c3ccccc23)cc1`, which Potency is on record?
Answer: inconclusive: 7.08 µM [inhibitor, partial curve, poor fit]

Question: Which activity, negative = inhibition does the source give for `Cn1c(=O)[nH]c(=O)c2c1nc(Br)n2CCCSc1nc2ccccc2o1` here?
Answer: inconclusive: -63.8% [inhibitor]

Question: For `O=c1/c(=C/c2ccco2)sc2n1CN(c1ccccc1)CN=2`, which Potency is on record?
Answer: active: 12.6 µM

Question: Which activity, negative = inhibition does the source give for `C=C(c1ccccc1)c1ccc(N(C)C)cc1` here?
Answer: inactive: 16.8% [at 2.33 µM]

Question: `Cc1ccc(C)c(S(=O)(=O)n2cnc3ccccc32)c1` was tested. Which Potency did it give?
Answer: inconclusive: 1.12 µM [inhibitor, partial curve, poor fit]

Question: For `CC(C)NS(=O)(=O)c1ccc(NC(=O)Cc2cccs2)cc1`, which “activity, negative = inhibition” value is on record?
Answer: inactive: 11.5%

Question: With `CCCn1c(=O)c(C(=O)NCCCc2ccccc2)c(O)c2ccccc21` as the molecule, how does the “activity, negative = inhibition” value read?
Answer: inactive: 306% [at 102 µM]

Question: `Cc1ccsc1/C=N/N1CCN(Cc2ccccc2)CC1` was tested. Which Potency did it give?
Answer: active: 31.6 µM

Question: For `Cc1onc(-c2ccccc2)c1C(=O)Nc1nnc(C(C)(C)C)s1`, which Potency is on record?
Answer: inconclusive: 79.4 µM [inhibitor, single point]

Question: How did the Potency turn out when `CN1CCN(NC(=O)C23CC4CC(CC(C4)C2)C3)CC1` was run?
Answer: inconclusive: 79.4 µM [inhibitor, single point]

Question: How did the Potency turn out when `CN(CC(=O)Nc1cccc(F)c1)C(=O)c1ccc2c(c1)S(=O)(=O)N=C1CCCCCN12` was run?
Answer: inconclusive: 17.8 µM [inhibitor, partial curve]

Question: Which Potency does the source give for `O=C1C(Cl)=C(Nc2ccccc2)C(=O)c2ccccc21` here?
Answer: inconclusive: 89.1 µM [inhibitor, single point]

Question: `N#C/C(=C\c1cccs1)c1nc2ccccc2[nH]1` was tested. Which Potency did it give?
Answer: inconclusive: 79.4 µM [inhibitor, single point]

Question: With `CN1CCC(Oc2ccccc2Sc2ccc(C(F)(F)F)cc2)CC1` as the molecule, how does the Potency read?
Answer: inconclusive: 8.91 µM [inhibitor, partial curve, poor fit]

Question: `CCCC(=O)Nc1nnc(SCC(=O)Nc2ccc3c(c2)OCO3)s1` was tested. Which Potency did it give?
Answer: inconclusive: 2 µM [inhibitor, partial curve, poor fit]

Question: How did the Potency turn out when `COc1ccccc1CNCc1cc(OC)c(OC)c(OC)c1` was run?
Answer: active: 7.94 µM

Question: With `COc1ccc(-c2nc3cnccn3c2NC(C)(C)CC(C)(C)C)cc1O` as the molecule, how does the Potency read?
Answer: inconclusive: 44.7 µM [inhibitor, partial curve, poor fit]

Question: For `Cc1cc(C)nc(SCC(=O)NC2=NN=C(c3ccc(Br)cc3)CS2)n1`, which Potency is on record?
Answer: inconclusive: 22.4 µM [inhibitor, single point]

Question: Which activity, negative = inhibition does the source give for `COc1ccc(N=C2CCS(=O)(=O)c3sccc32)cc1` here?
Answer: inconclusive: -71.3% [inhibitor]

Question: `CC1(OC(=O)CCc2ccccc2)C(=O)C=C2C=C(c3ccsc3)OC=C2C1=O` (stereo unspecified) was tested. Which Potency did it give?
Answer: inconclusive: 14.1 µM [inhibitor, single point]

Question: `CCOC(=O)c1ccc(NC(=S)N2CCSC2c2c(F)cc(F)cc2F)cc1` (stereo unspecified) was tested. Which Potency did it give?
Answer: inconclusive: 15.8 µM [inhibitor, single point]

Question: Which “activity, negative = inhibition” value does the source give for `COc1ccccc1CNC(=O)Cn1nc(C)n2cccc2c1=O` here?
Answer: inactive: -6.51%

Question: With `COc1cccc(CNC(=O)c2sc3ncccc3c2-n2c(C)ccc2C)c1OC` as the molecule, how does the Potency read?
Answer: inconclusive: 35.5 µM [inhibitor, partial curve, poor fit]

Question: With `CCN=c1scc(-c2cccs2)n1/N=C/c1cc(OC)ccc1O` as the molecule, how does the Potency read?
Answer: inconclusive: 15.8 µM [inhibitor, single point]

Question: For `Cc1nc(SCC(=O)NC2(C#N)CCCC2)n(CC(C)C)c1C`, which Potency is on record?
Answer: active: 39.8 µM

Question: For `O=C(NCc1ccccc1)c1ccc(N2CCC3(CC2)CC(c2ccc(Cl)cc2)=NO3)c([N+](=O)[O-])c1`, which Potency is on record?
Answer: inconclusive: 79.4 µM [inhibitor, single point]

Question: How did the activity, negative = inhibition turn out when `COCC(=O)N1CCC[C@@]2(CCN(Cc3cc(C(F)(F)F)cc(C(F)(F)F)c3)C2)C1` was run?
Answer: inactive: 41.1% [at 12.7 µM]

Question: `CCOC(=O)C1CCN(c2ccc(C(=O)O)cc2[N+](=O)[O-])CC1` was tested. Which “activity, negative = inhibition” value did it give?
Answer: inactive: -4.88%

Question: Which Potency does the source give for `COc1cc(/C=N/Nc2ccc(F)cc2F)cc(OC)c1OC` here?
Answer: active: 1.78 µM

Question: How did the Potency turn out when `CCN(CC)CCn1c(=N)n(CC(O)COc2cccc(C)c2)c2ccccc21` (stereo unspecified) was run?
Answer: inconclusive: 56.2 µM [inhibitor, partial curve, poor fit]

Question: `Cc1cc(C)c(OCC(O)CN2CCN(C(=O)c3ccccc3)CC2)c(C)c1` (stereo unspecified) was tested. Which Potency did it give?
Answer: active: 20 µM

Question: With `Cc1cccc(OCc2n[nH]c(=S)n2Cc2ccccc2)c1` as the molecule, how does the Potency read?
Answer: active: 17.8 µM

Question: How did the “activity, negative = inhibition” value turn out when `COc1ccccc1CNC(=O)CCn1c(=O)c2ccccc2n(CC(=O)Nc2cc(Cl)ccc2C)c1=O` was run?
Answer: inactive: -5.54%

Question: Which Potency does the source give for `CC(=O)OC[C@H]1O[C@@H](O/N=C/C[C@@H]2C=C[C@H](OC(C)=O)[C@@H](COC(C)=O)O2)[C@H](OC(C)=O)[C@@H](OC(C)=O)[C@@H]1OC(C)=O` here?
Answer: active: 79.4 µM

Question: Which Potency does the source give for `COc1ccc(CC(=O)N/N=C\c2cc(Br)c(O)c(Br)c2)cc1` here?
Answer: inconclusive: 89.1 µM [inhibitor, single point]

Question: Which Potency does the source give for `O=C(CN1C(=O)c2ccccc2C1=O)Nc1ccc(Cl)cn1` here?
Answer: inconclusive: 50.1 µM [inhibitor, partial curve, poor fit]

Question: Which Potency does the source give for `CC1CN(C(=O)c2cc3ccccc3cc2O)CC(C)O1` (stereo unspecified) here?
Answer: inconclusive: 89.1 µM [inhibitor, single point]
